Screen size: about 360,000 compounds; about 6,000 (1.7%) were called active. The shares of active, inactive and inconclusive entries below differ from those in the screen. Calls follow the shape of the dose curve; as a rule, active = well fitted cell-killing curve with a large enough effect; inconclusive = small, poorly fitted or top-dose-only effect, or effect the other way; inactive = flat fitted curve, though single readings scatter. Potencies of inconclusive entries are left out as doubtful fits.
Experiment: qHTS for induction of synthetic lethality in tumor cells producing 2HG: qHTS for the HT-1080-NT fibrosarcoma cell line;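 also: NT is the 2HG producing partner of a matched IDH1 knockdown line; nearly all actives have a fitted effect of over 55% in size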;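 as to activity, negative = less viability: 0% = DMSO-treated cells and -100% = media-only wells without cells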
Conditions: HT-1080-NT fibrosarcoma viability, CellTiter-Glo ATP luminescence, 48 h; activity, negative = less viability: at 46.1 µM (top of the series) unless noted
Procedure, shortened: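 Viability of the 2HG-overproducing fibrosarcoma line after 48 hours of compound exposure at 37 degrees C was determined by luminescence with CellTiter-Glo, and concentration-effect curves were then fitted and categorized.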
Potency is read from the fitted curve at half-maximal effect; tags tell the direction and shape of the fitted curve.

| SMILES | Potency | activity, negative = less viability |
| --- | --- | --- |
| CCc1nc2c(OCCC3CCCCC3)cccn2c1N(C)C(=O)C1CC1 | inconclusive [cytotoxic, single point] | – |
| CC(C)c1ccc(N(C(=O)c2snc(C(N)=O)c2N)C(C(=O)NC2CCCC2)c2ccncc2)cc1 (centres undefined) | inconclusive [cytotoxic, single point] | – |
| Fc1ccc(NC(=S)NC2CCCCC2)c(F)c1F | inconclusive [cytotoxic, single point] | – |
| COc1ccccc1NC(=S)N(Cc1ccco1)Cc1cc2cc(C)cc(C)c2[nH]c1=O | inconclusive [cytotoxic, single point] | – |
| CC(=O)Nc1ccc(CN2CCc3c([nH]c4ccccc34)C2c2ccccn2)cc1 (centres undefined) | active: 23.1 µM | – |
| Cc1cc(C)c(S(=O)(=O)Nc2ccccc2C(=O)N2CCCC2)c(C)c1 | – | inactive: -1.04% |
| CC(O)(CS(=O)(=O)Cc1ccc(Cl)cc1)C(=O)Nc1cccc(C(F)(F)F)c1 (centres undefined) | inconclusive [cytotoxic, single point] | – |
| CC1CCN(c2ccccc2NC(=S)NC(=O)C(C)(C)C)CC1 | inconclusive [cytotoxic, single point] | – |
| Cc1ccccc1C(=O)N1CCN(c2ccc(NC(=O)c3ccc4c(c3)OCCO4)cc2)CC1 | inconclusive [cytotoxic, single point] | – |
| Cc1nn(-c2ccccc2)c2sc(-c3n[nH]c(=S)o3)cc12 | inconclusive [rising, single point] | – |
| O=C(NC(Cc1c[nH]c2ccccc12)C(=O)N/N=C/c1ccc(Cl)cc1)c1cccs1 (centres undefined) | inconclusive [cytotoxic, partial curve] | – |
| COc1ccc(C(=O)NC2CCCc3c2cnn3-c2cccc(C)c2C)c(OC)n1 (centres undefined) | inconclusive [cytotoxic, partial curve] | – |
| O=C(/C=C/c1ccccc1Br)c1ccc2c(c1)OCO2 | inconclusive [cytotoxic, single point] | – |
| CC[n+]1ccc(/C=C/c2c[nH]c3ccccc23)cc1 | inconclusive [cytotoxic, full curve] | – |
| CCOc1ccc(/C=C2\SC(=S)N(CC(=O)N(CCO)C(C)(C)C)C2=O)cc1 | inconclusive [cytotoxic, partial curve, poor fit] | – |
| COc1ccc(C(NC(=O)C2CCN(Cc3ccc(Oc4ccccc4)cc3)CC2)c2ccccn2)cc1 (centres undefined) | active: 14.6 µM | – |
| C=CCNC(=O)C(=O)NCCOc1ccccc1Cl | inconclusive [cytotoxic, single point] | – |
| Cc1c(C(=O)NCc2ccccc2C(F)(F)F)sc(=O)n1Cc1ccc(Cl)c(Cl)c1 | inconclusive [cytotoxic, partial curve] | – |
| O=c1[nH]cc(S(=O)(=O)NCc2ccccc2)c(=O)[nH]1 | – | inactive: 2.95% |
| C[C@H](NC(=O)N1CCn2c1nc1ccccc12)C(=O)NCc1ccc(F)cc1 | – | inactive: 5.16% |
| COC(=O)c1cc2nc(-c3ccccc3)cc(C)n2n1 | – | inactive: 3.98% |
| Cc1ccc(NC(=O)CN2C(=O)CSc3ccc(S(=O)(=O)N4CCCCC4)cc32)cc1 | – | inactive: -2.84% |
| O=C(NN=C1CCCCC1)Nc1ccccc1Cl | inconclusive [cytotoxic, single point] | – |

| SMILES | Potency | activity, negative = less viability |
| --- | --- | --- |
| CCOC(=O)c1c(NC(=O)C(NCCN(C)C)c2ccccc2)sc2c1CCCC2 (centres undefined) | inconclusive [cytotoxic, single point] | – |
| CCc1ccc(NC(=O)c2cc(C(C)C)on2)cc1 | inconclusive [cytotoxic, single point] | – |
| COc1ccccc1-c1cc(NC(C)=O)c2ncc(-c3cccc(C(C)=O)c3)n2c1 | inconclusive [cytotoxic, single point] | – |
| COc1ccc2nc(NC(=O)c3cccc(OCc4c(C)noc4C)c3)sc2c1 | inconclusive [cytotoxic, full curve] | – |
| CC(=O)c1cccc(-c2ccnc3c2CC(C(=O)NCc2cccs2)O3)c1 (centres undefined) | inconclusive [cytotoxic, full curve] | – |
| CCN1/C(=C/c2sc(-c3ccccc3C)c[n+]2C)Sc2ccccc21 | active: 2.06 µM | – |
| CC(C)(C)CC(=O)NC(=S)NCc1ccco1 | – | inactive: -7.9% |
| Clc1ccc(N2CCN(c3ccnc(Cl)n3)CC2)cc1 | inconclusive [cytotoxic, single point] | – |
| C/C(=N/OC(=O)c1ccccc1Br)c1ccc(C)cc1 | inconclusive [rising, partial curve, poor fit] | – |
| O=[N+]([O-])c1ccc(-n2nnnc2-c2ccccc2)c([N+](=O)[O-])c1 | inconclusive [cytotoxic, single point] | – |
| CCCCNC(=S)NCC(c1ccccc1)c1c[nH]c2ccccc12 (centres undefined) | inconclusive [cytotoxic, partial curve] | – |
| CCC(O)(CC)C(=O)N/N=C/c1cc(Br)cc(Br)c1O | inconclusive [cytotoxic, single point] | – |
| C=CCN1C(C(=O)c2ccccc2)=C(OC(=O)COc2ccccc2)c2ccccc2S1(=O)=O | inconclusive [cytotoxic, partial curve] | – |
| NNC(=O)c1cc2sccc2s1 | inconclusive [cytotoxic, full curve] | – |
| Clc1ccc2c(N/N=C/c3ccccc3Br)ccnc2c1 | inconclusive [cytotoxic, single point] | – |
| O=C(NCC(F)(F)F)Nc1nnc(C(F)(F)F)s1 | – | inconclusive: -33.8% [cytotoxic] |
| Cc1cc(C(C)(C)C)cc(C)c1COC(=O)c1cccnc1 | inconclusive [cytotoxic, partial curve] | – |
| CCCN(CC(=O)Nc1ccccc1C)C(=O)Cc1coc2cc(C)ccc12 | – | inactive: 4.05% |
| CN(C)S(=O)(=O)c1ccc(-c2cn3ccccc3n2)cc1 | inconclusive [cytotoxic, partial curve] | – |
| CN1CCN(CCCN2c3ccccc3Sc3ccc(S(=O)(=O)N(C)C)cc32)CC1 | active: 18.4 µM | – |
| C[n+]1c(-c2ccccc2)cc2c(=Cc3ccc([N+](=O)[O-])cc3)c3ccccc3n21 | inconclusive [cytotoxic, single point] | – |
| CCOc1cc(/C=C2\C(=O)NN(c3ccccc3)C2=O)cc([N+](=O)[O-])c1O | inconclusive [cytotoxic, partial curve] | – |
| CCC(C)Sc1nc2c(c(=O)[nH]c(=O)n2C)n1CC(O)COc1ccccc1C (centres undefined) | – | inactive: -13.1% |

| SMILES | Potency | activity, negative = less viability |
| --- | --- | --- |
| COc1ccccc1CCC(=O)Nc1cccc(S(=O)(=O)N2CCCCCC2)c1 | – | inactive: -2.92% |
| COC(=O)CSC1=C(C#N)C(c2ccc3c(c2)OCO3)C2=C(CCCC2=O)N1 (centres undefined) | – | inactive: -4.87% |
| CCc1c(-c2ccccc2)ncn1Cc1cccc(-c2ccccc2)c1 | inconclusive [cytotoxic, single point] | – |
| CCCC(=O)NC(c1ccc(OC)cc1)c1c(O)ccc2ccccc12 (centres undefined) | inconclusive [cytotoxic, single point] | – |
| CN(C)c1ccc2c(c1)OC(N)=C(C#N)C2c1cccc(F)c1 (centres undefined) | active: 0.178 µM | – |
| CCOC(=O)c1cc(C)nc(S(C)(=O)=O)c1C#N | inconclusive [cytotoxic, single point] | – |
| COc1cccc(-n2nnnc2S(C)(=O)=O)c1 | inconclusive [cytotoxic, single point] | – |
| Cc1ccc(-c2nnn3c2nc(NCCc2ccc(S(N)(=O)=O)cc2)c2ccccc23)cc1 | inconclusive [cytotoxic, single point] | – |
| Cc1ccc(C)c(NC(=O)CNS(=O)(=O)c2ccccc2)c1 | – | inactive: 7.72% |
| CCc1ccc2[nH]c(=O)c(CN(CCCN3CCOCC3)C(=O)Nc3ccccc3)cc2c1 | inconclusive [cytotoxic, partial curve] | – |
| CCOc1ccc(NC(=O)CCN2CCN(c3ccccc3F)CC2)cc1 | inconclusive [cytotoxic, single point] | – |
| O=C(O)C1=CCC(c2ccc(Cl)c(Cl)c2)N(S(=O)(=O)c2ccc(F)cc2)C1c1cccc(F)c1 (centres undefined) | inconclusive [cytotoxic, single point] | – |
| Cc1cc(C)c2nc(-c3ccccn3)cc(C(=O)NCc3cc(C)n(C)n3)c2c1 | inconclusive [cytotoxic, single point] | – |
| N=c1c2c3c(sc2nc2n1CCCCC2)CCCCC3 | – | inactive: -1.72% |
| CCS(=O)(=O)c1c([N+](=O)[O-])ncn1C | inconclusive [cytotoxic, single point] | – |
| Cc1cccc(CN2CCN(CC(=O)NCCCN3CCCC3=O)C2=O)c1 | – | inactive: 12.8% |
| Cc1cc2c3c([nH]c2cc1S(=O)(=O)NCc1ccc(CN2CCCCCC2)o1)CC(C)(C)CC3=O | inconclusive [cytotoxic, single point] | – |
| CCCCCNc1nc(N2CCCC2)c2c(c1C#N)CCN(C)C2 | active: 29.1 µM | – |
| CCOc1cc(/C=N/n2c(C)nc3ccccc3c2=O)ccc1O | inconclusive [cytotoxic, partial curve] | – |
| CC(=O)N1CCN(C(=S)Nc2cc(S(=O)(=O)N3CCOCC3)ccc2Cl)CC1 | – | inactive: 4.97% |
| FC(F)(F)c1cccc(-c2cncc(N3CCN(CCN4CCCC4)CC3)n2)c1 | inconclusive [cytotoxic, single point] | – |
| COc1cccc(-c2nnc(SCCC(=O)O)n2C)c1 | – | inactive: 6.67% |
| Cc1cc(NC(=O)CSCC(=O)N(c2ccc(F)cc2)C(C(=O)NC2CCCCC2)c2ccc(O)c(O)c2)no1 (centres undefined) | – | inactive: -6.04% |
